{
  "sequences": {"note": "Amino acid sequences for entries named in this document (tags omitted).", "UniProt P06224": "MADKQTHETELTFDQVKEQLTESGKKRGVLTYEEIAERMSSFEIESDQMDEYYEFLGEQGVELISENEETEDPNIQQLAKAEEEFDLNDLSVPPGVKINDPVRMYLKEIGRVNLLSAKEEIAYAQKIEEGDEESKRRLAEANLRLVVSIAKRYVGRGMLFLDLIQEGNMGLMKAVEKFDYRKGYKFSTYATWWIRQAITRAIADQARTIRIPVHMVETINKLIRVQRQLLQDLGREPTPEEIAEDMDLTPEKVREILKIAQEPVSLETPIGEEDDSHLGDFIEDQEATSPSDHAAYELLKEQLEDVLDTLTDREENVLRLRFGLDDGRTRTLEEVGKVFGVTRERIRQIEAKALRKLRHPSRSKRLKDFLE"},
  "source": "paper PMC4383634",
  "about": "“Dual-Specificity Anti-sigma Factor Reinforces Control of Cell-Type Specific Gene Expression in Bacillus subtilis” (PLoS Genetics, 2015)",
  "binders": {"B1": {"name": "σ^E (in sporulating B. subtilis cells) (protein, UniProt P06222 30-239)", "chain": "GGSEALPPPLSKDEEQVLLMKLPNGDQAARAILIERNLRLVVYIARKFENTGINIEDLISIGTIGLIKAVNTFNPEKKIKLATYASRCIENEILMYLRRNNKIRSEVSFDEPLNIDWDGNELLLSDVLGTDDDIITKDIEANVDKKLLKKALEQLNEREKQIMELRFGLVGEEEKTQKDVADMMGISQSYISRLEKRIIKRLRKEFNKMV"}, "B2": {"name": "σ^G (in sporulating B. subtilis cells) (protein, UniProt P19940 1-260)", "chain": "MSRNKVEICGVDTSKLPVLKNEEMRKLFRQLQDEGDDSAREKLVNGNLRLVLSVIQRFNNRGEYVDDLFQVGCIGLMKSIDNFDLSHNVKFSTYAVPMIIGEIRRYLRDNNPIRVSRSLRDIAYKALQVRERLISETSKEPTAEDIAKVLEVPHEEIVFALDAIQDPVSLFEPIYNDGGDPIYVMDQISDERNTDSQWIEELALKEGMRRLNDREKMILRKRFFQGKTQMEVAEEIGISQAQVSRLEKAAIKQMNKNIHQ"}, "B3": {"name": "GAL4 activation domain-CsfB fusion (protein, UniProt P37534 1-64)", "chain": "MDETVKLNHTCVICDQEKNRGIHLYTKFICLDCERKVISTSTSDPDYAFYVKKLKSIHTPPLYS"}, "B4": {"name": "CsfB-StrepII-tagged protein (natural protein, B. subtilis, UniProt P37534 1-64, looked up)", "chain": "B3 chain", "notes": "CsfB (Gin), anti-sigma factor of B. subtilis; source: E. coli, overproduced and partially purified; not shown: Strep II tag, C-terminal, kept"}},
  "key": {"[1]": {"target": "T1, CsfB-GFP fusion protein (B. subtilis) (UniProt P37534)", "T1 sequence": "B3 chain", "assay": "pull-down; GFP-binding protein (GBP) on sepharose beads (GFP-Trap) incubated with cleared whole cell extracts of B. subtilis strains 4 h after the onset of sporulation in resuspension medium; bound proteins eluted and immunoblotted with anti-σ^E, anti-σ^G, anti-σ^K and anti-GFP; CsfB-GFP from P_csfB, P_sigF or P_sigK"}, "[2]": {"target": "T2, GAL4 DNA binding domain-σ^G fusion (B. subtilis) (UniProt P19940)", "T2 sequence": "B2 chain", "assay": "two-hybrid; GAL4-based yeast two-hybrid; CsfB fused to the activation domain, sigma factors or fragments to the DNA binding domain; lacZ reporter, colony lift assay and β-galactosidase assay in liquid medium"}, "[3]": {"target": "T3, GAL4 DNA binding domain-σ^(E 30–141) fusion (B. subtilis) (UniProt P06222)", "T3 sequence": "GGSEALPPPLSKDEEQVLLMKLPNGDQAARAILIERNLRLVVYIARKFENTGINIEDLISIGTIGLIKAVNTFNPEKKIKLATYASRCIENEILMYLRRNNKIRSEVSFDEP", "assay": "two-hybrid; GAL4-based yeast two-hybrid; CsfB fused to the activation domain, sigma factors or fragments to the DNA binding domain; lacZ reporter, colony lift assay and β-galactosidase assay in liquid medium"}, "[4]": {"target": "T4, GAL4 DNA binding domain-σ^(E 30–172) fusion (B. subtilis) (UniProt P06222)", "T4 sequence": "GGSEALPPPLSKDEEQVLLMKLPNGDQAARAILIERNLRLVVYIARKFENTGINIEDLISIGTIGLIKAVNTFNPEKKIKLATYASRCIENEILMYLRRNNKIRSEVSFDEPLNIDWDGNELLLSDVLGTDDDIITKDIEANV", "assay": "two-hybrid; GAL4-based yeast two-hybrid; CsfB fused to the activation domain, sigma factors or fragments to the DNA binding domain; lacZ reporter, colony lift assay and β-galactosidase assay in liquid medium"}, "[5]": {"target": "GAL4 DNA binding domain-σ^A fusion (B. subtilis) (UniProt P06224)", "assay": "two-hybrid; GAL4-based yeast two-hybrid; CsfB fused to the activation domain, sigma factors or fragments to the DNA binding domain; lacZ reporter, colony lift assay and β-galactosidase assay in liquid medium"}, "[6]": {"target": "T5, GAL4 DNA binding domain-σ^F fusion (B. subtilis) (UniProt P07860)", "T5 sequence": "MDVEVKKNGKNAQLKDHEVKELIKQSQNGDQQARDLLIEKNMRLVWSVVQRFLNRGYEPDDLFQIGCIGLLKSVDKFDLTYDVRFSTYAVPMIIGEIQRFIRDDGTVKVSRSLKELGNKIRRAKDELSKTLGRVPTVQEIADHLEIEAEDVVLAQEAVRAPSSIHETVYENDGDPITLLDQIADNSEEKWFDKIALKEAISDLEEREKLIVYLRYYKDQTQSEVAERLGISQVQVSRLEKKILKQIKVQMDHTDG", "assay": "two-hybrid; GAL4-based yeast two-hybrid; CsfB fused to the activation domain, sigma factors or fragments to the DNA binding domain; lacZ reporter, colony lift assay and β-galactosidase assay in liquid medium"}, "[7]": {"target": "T6, GAL4 DNA binding domain-σ^E fusion (B. subtilis) (UniProt P06222)", "T6 sequence": "B1 chain", "assay": "two-hybrid; GAL4-based yeast two-hybrid; CsfB fused to the activation domain, sigma factors or fragments to the DNA binding domain; lacZ reporter, colony lift assay and β-galactosidase assay in liquid medium"}, "[8]": {"target": "T7, GST-σ^(E 172–239) (B. subtilis) (UniProt P06222)", "T7 sequence": "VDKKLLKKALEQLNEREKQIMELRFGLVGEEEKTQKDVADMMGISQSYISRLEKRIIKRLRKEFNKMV", "assay": "pull-down; GST or GST-σ^E fusions on glutathione beads incubated with CsfB-Strep II (100 nM); after washing, eluted proteins immunoblotted with anti-Strep II tag antibody; both purified"}, "[9]": {"target": "T8, GST-σ^(E 141–172) (B. subtilis) (UniProt P06222)", "T8 sequence": "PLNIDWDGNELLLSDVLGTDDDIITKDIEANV", "assay": "pull-down; GST or GST-σ^E fusions on glutathione beads incubated with CsfB-Strep II (100 nM); after washing, eluted proteins immunoblotted with anti-Strep II tag antibody; both purified"}, "[10]": {"target": "T9, GST-σ^(E 98–141) (B. subtilis) (UniProt P06222)", "T9 sequence": "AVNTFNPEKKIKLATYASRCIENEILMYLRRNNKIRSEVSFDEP", "assay": "pull-down; GST or GST-σ^E fusions on glutathione beads incubated with CsfB-Strep II (100 nM); after washing, eluted proteins immunoblotted with anti-Strep II tag antibody; both purified"}, "[11]": {"target": "T10, GST-σ^(E 30–98) (B. subtilis) (UniProt P06222)", "T10 sequence": "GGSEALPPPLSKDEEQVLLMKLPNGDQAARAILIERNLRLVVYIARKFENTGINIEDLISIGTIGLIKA", "assay": "pull-down; GST or GST-σ^E fusions on glutathione beads incubated with CsfB-Strep II (100 nM); after washing, eluted proteins immunoblotted with anti-Strep II tag antibody; both purified"}},
  "note": "Results are given in words; binding and its absence hold for the method and conditions named. For part of these data: In cells and extracts the contact can be indirect. Some results given as binding are weak or reduced against the parent protein; the word gives no strength. Sequences can lack the tags named with a protein.",
  "data": [
    {"binder": "B1", "values": [
      {"measurement": "binding", "setting": "[1]", "value": "binds"}
    ]},
    {"binder": "B2", "values": [
      {"measurement": "binding", "setting": "[1]", "value": "binds"}
    ]},
    {"binder": "B3", "values": [
      {"measurement": "binding", "setting": "[2]", "value": "binds"},
      {"measurement": "binding", "setting": "[3]", "value": "binds"},
      {"measurement": "binding", "setting": "[4]", "value": "binds"},
      {"measurement": "binding", "setting": "[5]", "value": "no binding"},
      {"measurement": "binding", "setting": "[6]", "value": "no binding"},
      {"measurement": "binding", "setting": "[7]", "value": "binds"}
    ]},
    {"binder": "B4", "values": [
      {"measurement": "binding", "setting": "[8]", "value": "no binding (tested: 100 nM)"},
      {"measurement": "binding", "setting": "[9]", "value": "no binding (tested: 100 nM)"},
      {"measurement": "binding", "setting": "[10]", "value": "no binding (tested: 100 nM)"},
      {"measurement": "binding", "setting": "[11]", "value": "no binding (tested: 100 nM)"}
    ]}
  ]
}
